Measured values from ChEMBL document CHEMBL4888484, “Replenishing the malaria drug discovery pipeline: Screening and hit evaluation of the MMV Hit Generation Library 1 (HGL1) against asexual blood stage Plasmodium falciparum ,using a nano luciferase reporter read-out” (2022).
Hit rate of the full screen: of about 150,000 compounds, about 540 (0.36%) showed an effect of 50% or more. Some of the results follow.

Tested on: Plasmodium falciparum
Test: Primary screen in NF54 nanoGlo assay, in single point, at 2uM, 72h; a lower Z score goes with more inhibition
Format: functional, Erythrocyte
Settings: timepoint 72 hour

| Structure (SMILES) | % Inhibition [%] | Z score |
| --- | --- | --- |
| O=C(Nc1ccccc1-c1ccccc1)c1ccoc1 | -10 | 1.88 |
| CC(=O)N1CCn2nc(C(=O)N(C)Cc3cc(-c4cccs4)n[nH]3)cc2C1 | -17 | 2.67 |
| O=C(O)c1ccc2nc(-c3ccc4c(c3)CCC4)[nH]c2c1 | -5 | 0.75 |
| CCS(=O)(=O)N1CCCC[C@H](NC(=O)c2ccc(-n3cnnn3)cc2O)C1 | -11 | 1.62 |
| CCCn1cc(-c2c[nH]c([C@H]3CC(=O)N(CC(C)C)C3)n2)c(C)n1 | 1 | -0.2 |
| COc1ncccc1NC(=O)N(C)[C@@H](C)c1ccc(C)s1 | 2 | -0.21 |
| CC(=O)c1cccc(-n2ccnc2-c2ccc(Cn3cccn3)cc2)c1 | -8 | 1.13 |
| Cc1nc(C(C)C)sc1C(=O)N1CCCn2nc(C#N)cc2C1 | -3 | 0.53 |
| Cc1cc(Br)c2c(c1)CN(C(=O)[C@H](CO)NC(N)=O)CC2 | 14 | -1.81 |
| O=C(CCc1ccccc1)N1C[C@@H](C(=O)N2CCCC2)[C@H](c2cccnc2)C1 | 4 | -0.41 |
| O=S(=O)(Nc1ccc(N2CCN(Cc3ccccc3Cl)CC2)nc1)c1ccc(F)cc1 | -3 | 0.41 |
| COc1ccc(CN2C(=O)[C@@H]3C(CC(N)=O)NC4(C(=O)Nc5c4ccc(Cl)c5C)[C@@H]3C2=O)cc1 (stereo partly specified) | -3 | 0.36 |
| CC1(C)CN(C(=O)CCc2cccnc2)CCN1Cc1ccccc1 | 0 | 0.06 |
| O=C1CCN(c2nc(-c3ccccc3)nc3c2CCNC3)CCN1 | -9 | 1.8 |
| Cc1nc(NC(=O)Nc2cc(C3CC3C)n[nH]2)ccc1Br (stereo unspecified) | 7 | -1.2 |
| CCc1nccn1CCC(=O)N1CCC[C@H](C(=O)c2cccc3ccccc23)C1 | -6 | 0.76 |
| O=C(NCc1ccc(-c2ccoc2)nc1)NC1CCCC1 | 8 | -1.04 |
| Cc1cccc(C)c1Cn1nc(CO)c(=O)cc1C | -7 | 0.85 |
| C[C@@H](c1nnnn1C1CC1)S(=O)(=O)c1ccc(Cl)c(Cl)c1 | -1 | 0.09 |
| Cc1nc(CN(C)CC2(CO)CCC2)n(C)c1C | -1 | 0.28 |
| COC(=O)c1ccccc1N(C(=O)c1ccnn1C)C1CCC1 | 11 | -1.01 |
| O=C(Nc1cccc(OC(F)F)c1)c1ccc(-n2cncn2)nn1 | -7 | 1.25 |

| Structure (SMILES) | % Inhibition [%] | Z score |
| --- | --- | --- |
| C[C@H]1CN(CCn2cnc3ccccc3c2=O)CCN(C2CCC2)C1 | -8 | 0.87 |
| O=C(Nc1ccc2c(c1)OCCO2)N[C@@H]1C=CCCC1 | -25 | 3.58 |
| Oc1cc(-c2ccc(Cl)cn2)cc2c1OCCN(CCn1cncn1)C2 | -6 | 1.24 |
| Cc1ccc(S(=O)(=O)N2CCN(C(=O)c3ccc4[nH]cnc4c3)CC2)cc1 | -19 | 3.67 |
| CN1CC(C(=O)N2CCC(c3ccccc3Cl)S(=O)(=O)CC2)CC1=O (stereo unspecified) | 8 | -1.32 |
| C[C@H](OC(=O)CCc1ccccc1)C(=O)N1CC(=O)Nc2ccccc21 | -8 | 1.03 |
| COc1ccc(-c2cccc(-c3ccn(CCO)n3)c2)c(C)c1 | -6 | 0.82 |
| Cc1cccc2[nH]cc(CCC(=O)NC[C@H]3CCCN3CCCO)c12 | -17 | 3.36 |
| Cc1ccc(CNC(=O)Cn2nc(C)c3sc(C(C)C)nc3c2=O)o1 | -15 | 2.07 |
| CC(C)n1ncc(C(=O)NC(C)(C)CN(C)Cc2ccccc2)c1N | -12 | 2.14 |
| CCn1nc(C)c(C(=O)N2CC(N3CCNC3=O)C2)c1C | -2 | 0.29 |
| O=C(Cc1ccccc1)N(Cc1ccccc1)Cc1nc2cc(Cl)ccc2o1 | -12 | 1.17 |
| CCNc1nc(C)c(C(=O)N[C@@H](C)Cn2cccn2)s1 | -11 | 1.46 |
| O=C(c1cncc(F)c1)N1CCc2ncnc(N3CC[C@@H](O)C3)c2CC1 | -1 | 0.09 |
| CC(C)NC(=O)N1CCC(c2nc(CCNC(=O)C3CCC3)cs2)CC1 | 7 | -0.88 |
| Cc1cc(N(CN2CCCC2=O)C(=O)c2ccccc2)no1 | 2 | -0.21 |
| CN1C(=O)[C@@H]2CC[C@H]1CN(C(=O)c1ccccc1Oc1ccccc1)C2 | 5 | -1.01 |
| Cc1nnc([C@H]2CCCN(S(=O)(=O)c3ccc(C(C)(C)C)cc3)C2)s1 | -9 | 1.27 |
| C[C@H]1CCCN(c2nc(Nc3ccc(F)cc3)c3nn[nH]c3n2)C1 | -17 | 2.57 |
| COC(=O)[C@@H]1C[C@H](O)CCN1C(=O)c1cccc2ccccc12 | -12 | 2.16 |
| Cc1nc(Cn2nccn2)n(C2CCCCC2)n1 | -4 | 0.77 |
